# The campaign covered roughly 420,000 compounds. About 50,000 (12%) were called active. Inconclusive results, whose numbers are uncertain, are shown with a selection of clear calls. Calls follow the shape of the dose curve; as a rule, active = well fitted inhibition curve with a large enough effect; inconclusive = small, poorly fitted or top-dose-only effect; inactive = flat fitted curve, though single readings scatter. Potencies of inconclusive entries are left out as doubtful fits.
# Test: qHTS for Inhibitors of human tyrosyl-DNA phosphodiesterase 1 (TDP1): qHTS in cells in presence of CPT; also: nearly all actives have a fitted effect of over 55% in size
# Conditions: chicken DT40 Tdp1-/-;hTDP1 cells + 20 nM CPT, ATP luminescence, 48 h; series mostly up to 46.2 µM
# How it was run: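 Chicken DT40 Tdp1-/- cells stably complemented with human TDP1 were seeded at 400 cells/well in medium containing 20 nM camptothecin, exposed to pin-transferred compounds, and grown at 37 °C for at least 48 hr. Viability was read as ATP luminescence.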
# Potency is read from the fitted curve at half-maximal effect; tags tell the direction and shape of the fitted curve.
row,Structure (SMILES),Potency
1,C=CCn1nnnc1SCC(=O)Nc1cccc(OC)c1,inactive
2,Cn1c(=O)c(CCc2ccccc2)nc2cnc(N3CCOCC3)nc21,inactive
3,O=C(CC1OC(=O)c2ccccc21)Nc1ccc(Cl)c(S(=O)(=O)N2CCCCC2)c1 (stereo not drawn),"inconclusive [inhibitor, single point]"
4,COc1ccc(NC(=O)C2(C)Cc3c(-c4ccccc4)ccnc3O2)cc1OC (stereo not drawn),"inconclusive [inhibitor, partial curve, poor fit]"
5,COc1ccc(C(=O)CSc2nc(C)cc(C)c2C(=O)Nc2ccccc2C)cc1,"inconclusive [inhibitor, partial curve, poor fit]"
6,c1ccc(Cc2c(-c3ccccc3)nc3c4ccccc4ccn23)cc1,"inconclusive [inhibitor, single point]"
7,CCOc1ccccc1N1CCN(CC(=O)Nc2ccnn2C2CCCC2)CC1,active: 13 µM
8,CN(C)S(=O)(=O)c1ccc(Cl)c(NC(=O)COC(=O)/C=C/c2ccc(S(=O)(=O)N3CCOCC3)cc2)c1,"inconclusive [inhibitor, partial curve, poor fit]"
9,COc1ccc(N(CC(=O)Nc2ccc3c(c2)OCO3)S(=O)(=O)c2ccccc2)cc1OC,"inconclusive [inhibitor, single point]"
10,CCc1ccc(NC(=O)CSc2nc3ccccc3nc2Cc2ccc(C)cc2)cc1,"inconclusive [inhibitor, partial curve]"
11,Cc1c(C(=O)Nc2ccc(F)cc2)cn2c(nc3ccccc32)c1C#N,inactive
12,COc1ccccc1-c1cc(=O)c2cc(O)ccc2o1,"inconclusive [inhibitor, single point]"
13,COc1cc(C2(C)SCCCS2)cc(OC)c1OC,"inconclusive [inhibitor, partial curve]"
14,O=[N+]([O-])c1c(Nc2ccccc2O)cc(N2CCOCC2)c2nonc12,active: 16.4 µM
15,CCOC(=O)N1CCC(Nc2nc(OC)nc(OC)n2)CC1,"inconclusive [inhibitor, single point]"
16,Cn1c(-c2cccc([N+](=O)[O-])c2)[n+](C)c2ccccc21,active: 7.31 µM
17,CCOC(=O)Nc1ccc2c(CN3C(=O)NC(CC)(CC)C3=O)cc(=O)oc2c1,"inconclusive [inhibitor, single point]"
18,CC(=O)N1c2ccc(S(=O)(=O)N3CCC(C(=O)Nc4cc(C)cc(C)c4)CC3)cc2CC1C (stereo not drawn),"inconclusive [inhibitor, single point]"
19,CCC(C)NC(=O)CSc1nc2cc3c(cc2c(=O)n1CCCC(=O)NCCc1ccc(OC)c(OC)c1)OCO3 (stereo not drawn),inactive
20,Cc1ccccc1CN(CC(=O)Nc1cccc([N+](=O)[O-])c1)S(=O)(=O)c1ccc(Cl)cc1,"inconclusive [inhibitor, single point]"
21,COc1cccc(-c2nc(S(=O)(=O)c3ccccc3)c(N3CCCCC3)o2)c1,"inconclusive [inhibitor, single point]"
22,COCC1CCCN(C(=O)c2ccc3nc(Cc4cccc(Cl)c4)oc3c2)C1 (stereo not drawn),active: 25.9 µM

row,Structure (SMILES),Potency
1,COCCNC(=O)c1ccc2c(=O)n(CCc3ccccc3)c(SCC(=O)CC(=O)OC)nc2c1,"inconclusive [inhibitor, single point]"
2,COc1ccc(F)cc1C(=O)C1CCCN(Cc2cccn2-c2cccnc2)C1 (stereo not drawn),"inconclusive [inhibitor, single point]"
3,CCn1c(C(C)NC(=O)c2cccs2)n[nH]c1=S (stereo not drawn),"inconclusive [inhibitor, single point]"
4,COc1ccc(C(=O)OCC(=O)Nc2ccc3[nH]c(=O)[nH]c3c2)c(OC)c1OC,inactive
5,CCOC(=O)NNC1CC(=O)N(c2ccc(OC)cc2)C1=O (stereo not drawn),inactive
6,CC1C(=O)Nc2ccc(S(=O)(=O)N3CCN(c4cccc(C(F)(F)F)c4)CC3)cc2NC1=O (stereo not drawn),active: 25.9 µM
7,ON=C1c2ccccc2-c2ccc(O)cc21,"inconclusive [inhibitor, single point]"
8,COc1ccc(/C=C/C(=O)N(Cc2cccs2)C2CCS(=O)(=O)C2)cc1 (stereo not drawn),"inconclusive [inhibitor, single point]"
9,CCCCC1CCC(C(=O)OCC(=O)N(CCOC)c2c(N)n(Cc3ccccc3)c(=O)[nH]c2=O)CC1 (stereo not drawn),"inconclusive [inhibitor, partial curve]"
10,CCOC(=O)c1oc2nc(C(C)C)c3c(c2c1N)CC(C)(C)OC3,"inconclusive [inhibitor, single point]"
11,CC(=O)OCC1=C(C(=O)O)N2C(=O)[C@@H](NC(=O)CSc3ccncc3)[C@H]2SC1,inactive
12,COc1ccc(CNC(=O)c2cccc(NC(=O)CC3SC(N4CCCCC4)=NC3=O)c2)cc1 (stereo not drawn),inactive
13,C=CCSc1nc2c(C(=O)OCC)nnn2c2ccccc12,"inconclusive [inhibitor, partial curve]"
14,Cc1cccc(C(=O)CC(=O)c2cc(Cl)ccc2O)c1,active: 3.26 µM
15,COc1ccccc1CNC(=O)c1ccc(CS(=O)(=O)c2c(Cl)cccc2Cl)o1,"inconclusive [inhibitor, single point]"
16,Cc1ccc(-n2c(SCC(=O)Nc3ncc(Cl)cc3Cl)nc3ccccc32)cc1,active: 14.6 µM
17,CCOC(=O)c1ccc(N2C(=O)c3[nH]nc(-c4ccc(C)cc4)c3C2c2ccc(O)c(OCC)c2)cc1 (stereo not drawn),active: 18.4 µM
18,CCOC(=O)c1c(C)[nH]c(C)c1S(=O)(=O)N(C)CC(=O)Nc1cc(Cl)ccc1C,"inconclusive [inhibitor, partial curve]"
19,CCCn1c(=O)c2sccc2n2c(CCCC(=O)N3CCN(c4ccccc4OC)CC3)nnc12,active: 18.4 µM
20,CCc1ccc(CNC(=O)c2c3c(nc4ccccc24)C(=O)N(C2CCCCC2)C3)cc1,"inconclusive [inhibitor, single point]"
21,C=CCNC(=O)c1ccc2nc(-c3ccco3)c(-c3ccco3)nc2c1,active: 11.2 µM
